Measurements from PubChem BioAssay AID588501 (NMMLSC, 2011).
About 420 (0.12%) of roughly 360,000 compounds were called active. Inconclusive results, whose numbers are uncertain, are shown with a selection of clear calls. Cut-off read from the data, not from the text of the source: active = inhibition above about 30%; inconclusive = no clear call, values can overlap the other calls; inactive = below that.

Target: Lethal factor (Bacillus anthracis) (UniProt P15917)
Assay: anthrax lethal factor cleavage blockers – biochemical, multiplex microsphere, MLPCN library, primary screen (AID 588501); note: plate controls were buffer without enzyme for full effect and enzyme alone for no effect
Settings: multiplex microsphere protease cleavage assay, LF; at 10 µM; stronger effect = higher value

UniProt P15917, sequence (P15917 whole entry, looked up): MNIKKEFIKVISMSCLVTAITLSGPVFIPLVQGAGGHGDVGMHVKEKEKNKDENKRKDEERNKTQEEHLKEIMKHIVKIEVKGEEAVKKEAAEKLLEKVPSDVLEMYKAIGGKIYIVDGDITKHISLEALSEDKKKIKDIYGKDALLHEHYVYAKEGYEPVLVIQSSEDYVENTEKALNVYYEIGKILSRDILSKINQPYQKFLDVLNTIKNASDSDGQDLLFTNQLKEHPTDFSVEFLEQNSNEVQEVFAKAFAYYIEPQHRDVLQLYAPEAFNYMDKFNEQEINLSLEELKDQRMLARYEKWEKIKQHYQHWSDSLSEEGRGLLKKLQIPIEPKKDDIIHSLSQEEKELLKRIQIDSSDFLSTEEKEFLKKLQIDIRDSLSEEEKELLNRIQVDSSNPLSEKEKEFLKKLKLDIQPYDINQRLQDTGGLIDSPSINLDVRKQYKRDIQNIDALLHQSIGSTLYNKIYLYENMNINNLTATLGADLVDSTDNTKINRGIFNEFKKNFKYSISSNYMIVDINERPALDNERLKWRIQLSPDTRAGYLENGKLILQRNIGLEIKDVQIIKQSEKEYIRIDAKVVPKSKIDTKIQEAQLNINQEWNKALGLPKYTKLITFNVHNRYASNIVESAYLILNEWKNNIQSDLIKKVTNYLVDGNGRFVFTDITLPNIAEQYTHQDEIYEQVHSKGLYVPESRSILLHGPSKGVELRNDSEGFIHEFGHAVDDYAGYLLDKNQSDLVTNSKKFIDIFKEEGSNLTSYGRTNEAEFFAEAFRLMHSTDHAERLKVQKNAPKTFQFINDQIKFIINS

SMILES	inhibition
CCCCc1cc(=O)oc2c(C)c(OCC(=O)NCCN3CCOCC3)ccc12	inconclusive: -7%
CC(=O)Nc1ccc(-c2ccnc3c2CC(C(=O)NCC2CCOCC2)O3)cc1 (stereo unspecified)	inactive: -1.9%
O=C(CCC(=O)OCc1ccc(C(=O)Oc2ccc(Cl)cc2)cc1)Nc1ccccc1	inactive: -2%
COc1ccc(CC(=O)NC(C)c2ccc3ccccc3c2)cc1 (stereo unspecified)	inactive: -15.9%
CCOc1cc(CNn2cnnc2)cc(Br)c1OCC(=O)NC1CCCCC1	inconclusive: -15.1%
COc1cc(C2C3=C(Nc4ncnn42)c2ccccc2CC3)cc(OC)c1OC (stereo unspecified)	inconclusive: -14.9%
Cc1ccc(C(=O)NCC(c2ccc(F)cc2)N2CCOCC2)cc1S(=O)(=O)N1CCOCC1 (stereo unspecified)	inconclusive: 0%
CN(C)c1nc(-c2ccccn2)nnc1-c1ccccc1	inactive: -0.6%
CCCCN(C(=O)c1ccco1)C1CCS(=O)(=O)C1 (stereo unspecified)	inconclusive: -3.8%
COc1cc2c(cc1OC)C(C)N(CC(=O)Nc1ccc(C)c(S(=O)(=O)N3CCOCC3)c1)CC2 (stereo unspecified)	inconclusive: 2.5%
COc1ccc(S(=O)(=O)N2CCOCC2)cc1NC(=O)c1ccc(OCC(C)C)c(OC)c1	inconclusive: -3.7%
CCOc1ccccc1N1CN(C2CCCCC2)CNC1=S	inconclusive: -6.7%
N#Cc1c(-c2ccc(F)cc2)c2c([nH]c1=O)-c1ccccc1OC2	inconclusive: -11.9%
CCN(CC)C(=O)Cn1c(=O)n(CC(=O)N2CCCCC2)c(=O)c2sccc21	inconclusive: 0.4%
CC(C)OP(=O)(OC(C)C)C(Nc1ccccc1)c1cccc([N+](=O)[O-])c1 (stereo unspecified)	inconclusive: -13.1%
O=c1[nH]cc(S(=O)(=O)Nc2ccc3c(c2)OCO3)c(=O)[nH]1	inconclusive: -3.7%
COc1ccc(C(=O)NCc2cccnc2)cc1S(=O)(=O)N1CCOCC1	inactive: 0.7%
Cc1cc(C(=O)N/N=C/c2ccccc2)c(C)o1	inconclusive: -9.8%
Cc1ccc(S(=O)(=O)N2CCN(C(=O)c3n[nH]c(=O)c4ccccc34)CC2)c(C)c1	inconclusive: 1.6%

SMILES	inhibition
CCc1ccc(OCC(=O)O/N=C(\N)c2ccccn2)cc1	inconclusive: -11.7%
Cc1ccc(NC(=O)COC(=O)Cc2c[nH]c3ccccc23)cc1C	inconclusive: 0.9%
COCCn1nnnc1CN(CCc1ccccc1)Cc1cc2cc(OC)ccc2[nH]c1=O	inactive: 6.4%
CC12CN(S(=O)(=O)c3ccccc3)CC(C)(CN(S(=O)(=O)c3ccccc3)C1)C2	inconclusive: -7.6%
COc1ccc(NC(=O)COC(=O)C23CCC(=O)N2c2ccccc2S3)cc1 (stereo unspecified)	inconclusive: -18%
CC(=O)Nc1ccc(S(=O)(=O)NCC2(N3CCOCC3)CCCCC2)cc1	inconclusive: 0.9%
COCc1cc(=O)[nH]c(/N=C(\N)Nc2ccc(Cl)c(Cl)c2)n1	inconclusive: 2.6%
O=C(Cc1ccccc1)c1ccc(Cl)cc1	active: 30.2%
CCCCN(C(=O)c1oc2ccc(OCC)cc2c1C)c1c(N)n(CCCC)c(=O)[nH]c1=O	inconclusive: -2.3%
Cc1cc(C)n2nc(C(=O)N/N=C/c3ccccc3C)nc2n1	inconclusive: -4.8%
Cn1c(-c2ccc(C=O)s2)nc2c3ccccc3c3ccccc3c21	active: 48.2%
CC(=O)Nc1sc(-c2ccccc2)nc1-c1ccccc1	inactive: -6%
COCCCNC(=O)Cn1cnc2sc(C)c(S(=O)(=O)N3CC(C)CC(C)C3)c2c1=O (stereo unspecified)	inactive: -3.2%
CCCCCN(C(=O)CCC(=O)OCc1cc(C)ccc1C)c1c(N)n(CCCC)c(=O)[nH]c1=O	inconclusive: -1.7%
O=C1NCCCC1C(=O)N/N=C/c1ccc([N+](=O)[O-])cc1 (stereo unspecified)	inconclusive: -24.4%
CCCCNC(=O)c1cccc(S(=O)(=O)N2CC3(C)CC2CC(C)(C)C3)c1 (stereo unspecified)	inconclusive: -6%
COCCn1c(C)cc(C(=O)COC(=O)c2ccc(Cl)c(S(N)(=O)=O)c2)c1C	inconclusive: -2.1%
CCC(=O)N1CCC(C)(C(=O)Nc2ccc3c(c2)OCO3)C1 (stereo unspecified)	inactive: -1%
O=C(NNC(=O)c1ccccc1O)c1ccc(S(=O)(=O)Nc2ccccc2F)cc1	inconclusive: 0.6%

SMILES	inhibition
COCC(=O)Nc1ccc(N2CCOCC2)c(S(=O)(=O)Nc2ccccc2OC)c1	inconclusive: -1.5%
Cn1c(=NC(=O)CS(=O)(=O)c2ccc(F)cc2)sc2ccccc21	inconclusive: -3.4%
COc1cc(OC)cc(C(=O)NNC(=O)c2cc(=O)[nH]c3ccccc23)c1	inactive: -0.9%
S=C1NCN(C2CCCCC2)CN1CCc1ccccc1	inconclusive: 3.4%
CC(C#N)(NC(=O)COC(=O)c1ccccc1NCCO)C1CC1 (stereo unspecified)	inconclusive: -3%
Clc1ccc(/C=N/NC2=Nc3cccc4cccc2c34)cc1	inactive: 0.2%
O=C(Nc1ccccc1F)NC1CCN(Cc2nnnn2Cc2ccc(F)cc2)CC1	inactive: 0.9%
CC(C)C[C@@H](CN1CCCC1CN1C(=S)NC[C@@H]1Cc1ccccc1)N1C[C@H](Cc2ccccc2)N(CCc2ccccc2)C1=S (stereo partly specified)	inactive: -1.9%
Cn1c(O)c(N=Nc2ccc(F)cc2)c2ccccc21	inactive: -5.3%
O=C(CCN1C(=O)C2CCCCC2C1=O)Nc1ccc(OC(F)F)cc1 (stereo unspecified)	inconclusive: 4.1%
CCCCCn1c(CN2CCN(c3cccc(Cl)c3)CC2)nc2c1c(=O)n(C)c(=O)n2C	inactive: 0.3%
CNc1cccc(-c2c(OC)cccc2OC)n1	inactive: -3.5%
CCN(CC)c1ccc(S(=O)(=O)N2CCOCC2)cc1NC(=O)COC(=O)c1ccco1	inconclusive: -1.6%
CC(=O)NCc1c(Cl)cccc1-n1cccc1	inconclusive: -17.2%
COC(=O)Nc1nnc(COc2ccccc2)s1	inconclusive: -6%
Cc1cc(C(=O)N/N=C/c2ccc([N+](=O)[O-])s2)n[nH]1	inconclusive: -5.7%
CN(C)c1ccc(/C=C/c2cc[n+](C)c3ccccc23)cc1	inconclusive: -60.5%
CCc1noc(C)c1C(=O)N1CCCSC1=Nc1ccccc1C(C)C	inconclusive: 1.1%
